From PubChem BioAssay AID588591 (National Center for Advancing Translational Sciences (NCATS), 2011)
About 4,700 (1.2%) of roughly 390,000 compounds were called active. Inconclusive means that the source gave no clear call. Such entries were picked first, then a sample of the others. Calls come from the whole dose curve; as a rule, active = well fitted inhibition curve with a large enough effect; inconclusive = small, poorly fitted or top-dose-only effect, or another doubt; inactive = no such curve, though single readings can be large or run the other way. A potency beside an inconclusive call is a rough fit, not a confirmed value.

Each molecule was assayed against DNA polymerase eta (Homo sapiens) (UniProt Q9Y253) (assay: qHTS for Inhibitors of Polymerase Eta). Settings: recombinant Pol eta, fluorescent DNA replication assay; series mostly up to 114 µM.
UniProt Q9Y253, sequence (Q9Y253 whole entry, looked up): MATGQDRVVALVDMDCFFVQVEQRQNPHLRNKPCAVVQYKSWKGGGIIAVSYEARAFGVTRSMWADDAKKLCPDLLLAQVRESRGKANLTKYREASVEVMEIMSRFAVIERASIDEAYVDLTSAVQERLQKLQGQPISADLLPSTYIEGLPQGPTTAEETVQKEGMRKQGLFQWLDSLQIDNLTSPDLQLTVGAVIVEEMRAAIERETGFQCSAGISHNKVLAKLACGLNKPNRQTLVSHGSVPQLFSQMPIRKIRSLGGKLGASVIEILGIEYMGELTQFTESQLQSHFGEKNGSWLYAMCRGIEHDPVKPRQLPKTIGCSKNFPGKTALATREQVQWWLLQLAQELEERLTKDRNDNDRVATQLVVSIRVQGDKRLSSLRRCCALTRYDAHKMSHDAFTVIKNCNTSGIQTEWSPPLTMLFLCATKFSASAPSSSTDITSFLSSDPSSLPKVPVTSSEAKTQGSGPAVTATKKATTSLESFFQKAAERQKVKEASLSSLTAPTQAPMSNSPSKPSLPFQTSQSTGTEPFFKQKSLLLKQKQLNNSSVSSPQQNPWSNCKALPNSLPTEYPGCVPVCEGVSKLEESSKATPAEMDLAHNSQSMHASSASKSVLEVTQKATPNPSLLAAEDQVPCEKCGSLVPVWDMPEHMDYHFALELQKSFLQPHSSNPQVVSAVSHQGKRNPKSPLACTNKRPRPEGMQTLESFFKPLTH
How it was run: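 Pol eta (10 nM) was preincubated with compounds for 15 min at room temperature, after which fluorescent replication substrate (50 nM final) was added to start the reaction. Fluorescence was read kinetically at 0 and 10 min.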
Potency is the fitted concentration of half-maximal effect; tags give direction and shape of the fitted curve.

Question: For `O=C(Nc1nnc(S(=O)(=O)N2CCCCC2)s1)c1cccc(Br)c1`, which Potency is on record?
Answer: active: 44.7 µM

Question: Which Potency does the source give for `CCCCn1c(=O)c2ccccc2n2c(=S)[nH]nc12` here?
Answer: inactive

Question: `Cc1nnc(N2C(=O)c3oc4ccccc4c(=O)c3C2c2ccco2)s1` (centres undefined) was tested. Which Potency did it give?
Answer: inconclusive: 20 µM [inhibitor, full curve]

Question: `CCCc1cc(=O)n2[nH]c(Cc3ccccc3)nc2n1` was tested. Which Potency did it give?
Answer: inconclusive: 11.2 µM [inhibitor, partial curve, poor fit]

Question: For `COCCN(CC(=O)Nc1cccc(C)c1C)C(=O)c1cc2c(s1)CCC2`, which Potency is on record?
Answer: inconclusive: 35.5 µM [inhibitor, partial curve, poor fit]

Question: For `Cc1cc(C)c(Cn2cnc3nc4c(cc3c2=O)CCCC4)c(C)c1`, which Potency is on record?
Answer: inactive

Question: For `COc1ccc2nc(NC(=O)c3nc(S(=O)(=O)Cc4ccc(C)cc4)ncc3Cl)sc2c1`, which Potency is on record?
Answer: inconclusive: 89.1 µM [inhibitor, single point]

Question: With `COCCCn1c(SCc2nnc(-c3ccccc3)o2)nc2sc3c(c2c1=O)CCC3` as the molecule, how does the Potency read?
Answer: inconclusive: 20 µM [inhibitor, partial curve]

Question: With `CC(=O)N(C(C)=O)S(=O)(=O)c1ccc(N=NN2CCOCC2)cc1` as the molecule, how does the Potency read?
Answer: inconclusive: 28.2 µM [inhibitor, partial curve, poor fit]

Question: With `O=C(Nc1nc2c(F)cc(F)cc2s1)c1ccc([N+](=O)[O-])o1` as the molecule, how does the Potency read?
Answer: inconclusive: 25.1 µM [inhibitor, partial curve, poor fit]

Question: Which Potency does the source give for `FC(F)(F)c1cnc(N2CCN(C(=S)NCc3ccccc3)CC2)c(Cl)c1` here?
Answer: inconclusive: 25.1 µM [inhibitor, partial curve, poor fit]

Question: With `O=C(Nc1ccc(N2CCOCC2)cc1)c1ccc2ncsc2c1` as the molecule, how does the Potency read?
Answer: inconclusive: 12.6 µM [inhibitor, partial curve, poor fit]

Question: `O=C(c1cccc(S(=O)(=O)N2CCc3ccccc32)c1)N1CCc2ccccc2C1` was tested. Which Potency did it give?
Answer: inconclusive: 79.4 µM [inhibitor, partial curve, poor fit]

Question: For `Cc1cc(SCC(=O)NCc2ccccc2Cl)nc(=O)[nH]1`, which Potency is on record?
Answer: inconclusive: 89.1 µM [inhibitor, partial curve, poor fit]

Question: For `CCS(=O)(=O)N1CCC(N2CCC(C)CC2)CC1`, which Potency is on record?
Answer: inconclusive: 89.1 µM [inhibitor, partial curve, poor fit]

Question: How did the Potency turn out when `Cc1ccc2oc(=O)c3cc(C(=O)NCc4ccc(Cl)cc4)sc3c2c1` was run?
Answer: inconclusive: 56.2 µM [inhibitor, partial curve]

Question: Which Potency does the source give for `O=C(O)CCc1ccc(-c2ccccc2)o1` here?
Answer: inconclusive: 17.8 µM [inhibitor, partial curve, poor fit]

Question: For `COc1ccc(OC)c(-c2nnc3n(CCc4ccccc4)c(=O)c4ccccc4n23)c1`, which Potency is on record?
Answer: inactive

Question: `CCOc1ccc(/C=N/NC(=S)NC2CC3CCC2C3)cc1` (centres undefined) was tested. Which Potency did it give?
Answer: inconclusive: 89.1 µM [inhibitor, partial curve, poor fit]

Question: Which Potency does the source give for `COc1ccc(S(=O)(=O)N2CCOCC2)cc1NC(=O)COC(=O)c1ccc([N+](=O)[O-])s1` here?
Answer: inconclusive: 31.6 µM [inhibitor, single point]

Question: `Cc1cccc(N=C2NC(=O)S/C2=C\c2ccco2)c1` was tested. Which Potency did it give?
Answer: inconclusive: 56.2 µM [inhibitor, partial curve, poor fit]

Question: With `COc1ccc(NC(=O)c2ncoc2-c2ccco2)cc1Cl` as the molecule, how does the Potency read?
Answer: inactive

Question: Which Potency does the source give for `N=C1S/C(=C\c2ccco2)C(=O)N1c1nccs1` here?
Answer: inconclusive: 35.5 µM [inhibitor, full curve]

Question: How did the Potency turn out when `Cc1ccc(NC(=O)Nc2nc3ccc(S(C)(=O)=O)cc3s2)cc1` was run?
Answer: active: 79.4 µM

Question: How did the Potency turn out when `COc1ccc2c(c1)c(=O)oc1cc(OC(C(=O)O)c3ccccc3)ccc12` (centres undefined) was run?
Answer: inconclusive: 50.1 µM [inhibitor, partial curve, poor fit]

Question: With `Cc1cnc(C(=O)Nc2ccc(N3CCN(C(=O)OC(C)(C)C)CC3)cc2)cn1` as the molecule, how does the Potency read?
Answer: inconclusive: 39.8 µM [inhibitor, partial curve, poor fit]

Question: With `O=C(Nc1ccc2nc3n(c(=O)c2c1)CCCC3)c1cc([N+](=O)[O-])ccc1F` as the molecule, how does the Potency read?
Answer: inconclusive: 15.8 µM [inhibitor, full curve]

Question: `Cc1nc(Nc2ccc(C(=O)O)cc2)nc(Nc2ccc(C(=O)O)cc2)c1[N+](=O)[O-]` was tested. Which Potency did it give?
Answer: active: 35.5 µM

Question: With `Cn1c(=O)cc(SCC(=O)NCCc2ccc(Cl)cc2)c2cc(Cl)ccc21` as the molecule, how does the Potency read?
Answer: inactive

Question: With `CCN1CCN(c2cc(C)c3cc(NC(=O)c4cc(OC)c(OC)c(OC)c4)ccc3n2)CC1` as the molecule, how does the Potency read?
Answer: inconclusive: 50.1 µM [inhibitor, partial curve]

Question: `Oc1c(Br)cc(Br)cc1/C=N/c1nc2c(s1)CCCC2` was tested. Which Potency did it give?
Answer: inconclusive: 31.6 µM [inhibitor, partial curve]

Question: How did the Potency turn out when `CN1C(=O)S/C(=C/c2cccn2-c2cccc(C(=O)O)c2)C1=O` was run?
Answer: active: 50.1 µM

Question: With `COc1cc(Br)cc(C=Nc2cccc(C(F)(F)F)c2)c1O` as the molecule, how does the Potency read?
Answer: inconclusive: 31.6 µM [inhibitor, partial curve, poor fit]

Question: With `O=C1c2cccc3cccc(c23)C(=O)N1CCN1CCN(CC(O)COc2ccc3ccccc3c2)CC1` (centres undefined) as the molecule, how does the Potency read?
Answer: inconclusive: 8.91 µM [inhibitor, partial curve]

Question: For `N.N.N.N.N.N.N.N.N.N.N.N.N.N.O.O.[Cl-].[Cl-].[Cl-].[Cl-].[Cl-].[Cl-].[Ru].[Ru].[Ru]`, which Potency is on record?
Answer: active: 25.1 µM

Question: Which Potency does the source give for `O=C(Nc1cc(Cl)ccc1-n1cncn1)c1cc(F)c(F)c(F)c1F` here?
Answer: inconclusive: 0.251 µM [inhibitor, full curve, poor fit]

Question: With `COc1ccc(-n2c(SCC(=O)/C(C#N)=C(\C)N)nc3ccccc3c2=O)cc1OC` as the molecule, how does the Potency read?
Answer: inconclusive: 17.8 µM [inhibitor, partial curve, poor fit]

Question: `COc1ccc(Br)cc1/C=c1\sc2nc(-c3ccco3)nn2c1=O` was tested. Which Potency did it give?
Answer: active: 3.16 µM

Question: How did the Potency turn out when `CN1CCN(C(=O)c2ccccc2-c2ccccc2C(=O)O)CC1` was run?
Answer: inactive

Question: How did the Potency turn out when `COc1ccc2c(COC(=O)c3ccc(C)c(S(=O)(=O)N4CCOCC4)c3)cc(=O)oc2c1` was run?
Answer: active: 14.1 µM

Question: Which Potency does the source give for `CC(=O)Nc1c(C)nn(-c2ccccc2)c1N1CCC(C(=O)Nc2ccc(Cl)cc2C)CC1` here?
Answer: inactive

Question: `Cc1ccc(-n2c(C)cc(C(=O)COC(=O)C3=NNC(=O)CC3)c2C)cc1` was tested. Which Potency did it give?
Answer: inconclusive: 100 µM [inhibitor, partial curve, poor fit]

Question: Which Potency does the source give for `CCOC(=O)CSc1nc2cc(OC)ccc2cc1C#N` here?
Answer: inactive

Question: `CCN(CC)S(=O)(=O)c1ccc(O)c(NC(=O)c2cc(-c3cc(OC)c(OC)c(OC)c3)nc3ccccc23)c1` was tested. Which Potency did it give?
Answer: inconclusive: 39.8 µM [inhibitor, full curve]

Question: Which Potency does the source give for `Cc1cc(NC(=O)c2cc3nc(C4CC4)cc(C(F)(F)F)n3n2)no1` here?
Answer: inconclusive: 35.5 µM [inhibitor, single point]

Question: For `O=C(O)c1ccc2c(c1)C(=O)/C(=C\c1ccco1)C2=O`, which Potency is on record?
Answer: active: 3.55 µM

Question: Which Potency does the source give for `Cc1cc(O)c(C(c2ccccc2)N2CCN(c3ccccc3F)CC2)c(=O)n1Cc1ccco1` (centres undefined) here?
Answer: inactive

Question: With `NC(=O)Nc1ccc(C(=O)OCC(=O)N(Cc2ccccc2)C2CCS(=O)(=O)C2)cc1` (centres undefined) as the molecule, how does the Potency read?
Answer: inconclusive: 89.1 µM [inhibitor, partial curve, poor fit]

Question: How did the Potency turn out when `COc1ccc(S(=O)(=O)N(CCCN2CCOCC2)Cc2cccc3ccccc23)cc1` was run?
Answer: inconclusive: 79.4 µM [inhibitor, single point]

Question: Which Potency does the source give for `Cc1ccc(S(=O)(=O)n2nc(C)c(Br)c2C)c(C)c1C` here?
Answer: inactive

Question: How did the Potency turn out when `CCSc1nnc(NC(=O)Nc2cccc(C)c2)s1` was run?
Answer: inconclusive: 79.4 µM [inhibitor, partial curve, poor fit]

Question: With `COc1ccc(-n2nc3c(c2NC(=O)C(=O)NCc2ccccc2)CSC3)cc1` as the molecule, how does the Potency read?
Answer: inactive

Question: With `CN(C)N1C(N)=C(C#N)C(c2ccc3c(c2)OCO3)C2=C1CC(C)(C)CC2=O` (centres undefined) as the molecule, how does the Potency read?
Answer: inconclusive: 89.1 µM [inhibitor, partial curve, poor fit]

Question: How did the Potency turn out when `COc1ccc(C=C2SC(=S)NC2=O)c(OC)c1OC` was run?
Answer: inconclusive: 20 µM [inhibitor, single point]

Question: How did the Potency turn out when `Cc1cc(C(=O)Nc2cccc(C(=O)O)c2)c(C)o1` was run?
Answer: inconclusive: 79.4 µM [inhibitor, partial curve]

Question: Which Potency does the source give for `O=C(O)CCn1cc(/C=C/C(=O)c2ccc(Cl)cc2)c(-c2cccc(Br)c2)n1` here?
Answer: active: 56.2 µM

Question: `O=C(Cc1ccc(Cl)cc1)Nc1ccc(S(=O)(=O)Nc2cnc3ccccc3n2)cc1` was tested. Which Potency did it give?
Answer: inconclusive: 89.1 µM [inhibitor, partial curve, poor fit]

Question: How did the Potency turn out when `C[N+]1(CC(=O)OC2CCCCCCCCCCC2)CCCC1` was run?
Answer: inconclusive: 100 µM [inhibitor, partial curve, poor fit]

Question: How did the Potency turn out when `NC(=O)c1ccc2c(=O)n3c(-c4cc(Cl)c(N)c(Cl)c4)csc3nc2c1` was run?
Answer: inconclusive: 20 µM [inhibitor, partial curve, poor fit]

Question: With `Cc1cccc(C)c1NC(=O)Cc1cccs1` as the molecule, how does the Potency read?
Answer: inconclusive: 25.1 µM [inhibitor, partial curve, poor fit]

Question: For `CCOc1cc(/C=C2\COc3ccccc3C2=O)ccc1OCC(=O)N(C)C`, which Potency is on record?
Answer: inconclusive: 50.1 µM [inhibitor, partial curve]

Question: How did the Potency turn out when `CCOc1ccc(C(=O)Nc2ccc(-c3nc4ccccc4[nH]3)cc2)cc1[N+](=O)[O-]` was run?
Answer: inconclusive: 5.01 µM [inhibitor, full curve, poor fit]

Question: Which Potency does the source give for `CCC(=O)N1c2ccccc2CC1C(=O)NCCc1ccc(OC)cc1OC` (centres undefined) here?
Answer: inactive

Question: With `Nc1cc(=O)[nH]c(SCC(=O)N2N=C(c3ccc4ccccc4c3)CC2c2ccccc2)n1` (centres undefined) as the molecule, how does the Potency read?
Answer: inconclusive: 56.2 µM [inhibitor, partial curve]
